Source: PubChem BioAssay AID588855 (National Center for Advancing Translational Sciences (NCATS), 2011)
Where “and” joins values, the source holds several entries; their conditions need not be identical. Equal entries are not always repeated. Hit rate of the full screen: of about 410,000 compounds, about 5,000 (1.2%) were called active. Inconclusive results, whose numbers are uncertain, are shown with a selection of clear calls. Calls follow the shape of the dose curve; as a rule, active = well fitted inhibition curve with a large enough effect; inconclusive = small, poorly fitted or top-dose-only effect; inactive = no such curve, though single readings can be large or run the other way. A potency beside an inconclusive call is a rough fit, not a confirmed value. A structure can be active in one record and inactive in another.

Experiment: qHTS for Inhibitors of TGF-b; also: nearly all actives have a fitted effect of over 65% in size
Settings: HepG2 CAGA-GFP TGF-b/SMAD3 reporter, GFP fluorescence, 18 h, TGF-beta stimulated, 500 pg/mL final; series mostly up to 46.1 µM; activity, negative = inhibition: at the top concentration
Outline: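 Inhibition of TGF-beta-driven CAGA-GFP reporter expression in HEPG2 cells is measured by cellular GFP fluorescence after 18 h stimulation with 500 pg/mL recombinant TGF-beta in 1% FBS medium at 37 degrees C.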
% is scaled to controls: 0 for no effect and ±100 for the full control effect; potency is read from the fitted curve at half-maximal effect; tags tell the direction and shape of the fitted curve.

| SMILES | Potency | activity, negative = inhibition |
| --- | --- | --- |
| Cc1sc2ncnc(Sc3ccccc3C(=O)Nc3ccccc3Cl)c2c1C | inconclusive: 5.01 µM [inhibitor, full curve] | – |
| COc1cc(C2CC(=O)c3c([nH]c(C(=O)OCC4CCCCC4)c3C)C2)cc(OC)c1OC (centres undefined) | – | inactive: -9.73% |
| Cc1cccc(Nc2nn3c(=O)c4ccccc4nc3s2)c1 | – | inactive: 0.51% |
| COc1cccc(CNc2nc3cc(-c4ccsc4)sc3c(=O)n2C)c1OC | inconclusive: 14.1 µM [inhibitor, partial curve] | – |
| O=C(/C=C/c1ccccc1)N(c1ccccn1)C1CCCCC1 | – | inactive: -0.603% |
| COc1cc(NC(=O)CC(c2ccc(C)cc2)N2Cc3ccccc3C2=O)cc(OC)c1 (centres undefined) | inconclusive: 28.2 µM [inhibitor, single point] | – |
| CCOC(=O)C(=CNc1cc(C)nn1-c1ccc(Cl)cc1)C(=O)OCC | – | inactive: -4.11% |
| CCc1ccc(CNC(=O)COc2cc(=O)n(CC)c3ccccc23)cc1 | inconclusive: 25.1 µM [inhibitor, single point] | – |
| O=C(CN1CCN(c2ccc(F)cc2)CC1)Nc1ccccc1C(=O)NCCc1ccccc1 | inconclusive: 35.5 µM [inhibitor, single point] | – |
| O=C(c1ccccc1)C1CCN(C(=O)c2ccc(Cl)cc2)CC1 | inconclusive: 31.6 µM [inhibitor, single point] | – |
| CCN(CC)c1ccc(Nc2nc(N3CCOCC3)c3ccccc3n2)cc1 | active: 10 µM | – |
| CCC(=O)N1CCN(c2ccccc2NC(=O)COc2cc(C)ccc2C(C)C)CC1 | inconclusive: 22.4 µM [inhibitor, single point] | – |
| O=c1oc2ccc(C#CC3(O)CCCCC3)cc2cc1-n1cc(-c2ccsc2)nn1 | inconclusive: 15.8 µM [inhibitor, single point] | – |
| Cc1ccc(SCCC(=O)N2CCN(S(=O)(=O)c3ccccc3)CC2)cc1 | – | inactive: -12% |
| COc1ccc(-n2nnc(-c3nc(-c4cccs4)no3)c2N)cc1OC | – | inactive: 10.1% |
| Cc1cc2c(cc1C)NC(c1nc3ccccc3[nH]1)C1=C(CC(C)(C)CC1=O)N2 (centres undefined) | inconclusive: 35.5 µM [inhibitor, single point] | – |
| CN(CC(=O)Nc1c(Cl)cccc1Cl)C(=O)CNC(=O)c1ccc2c(c1)OCO2 | inconclusive: 17.8 µM [inhibitor, single point] | – |
| COc1cccc(C(=O)CC2(O)C(=O)Nc3ccc(Cl)cc32)c1 (centres undefined) | inconclusive: 20 µM [inhibitor, partial curve, poor fit] | – |
| Cc1occc1C(=O)NNC(=O)CN1C(=O)NC2(CCCCC2)C1=O | inconclusive: 25.1 µM [inhibitor, single point] | – |
| NC(=S)N/N=C/c1ccc(-c2ccccc2)o1 | inconclusive: 10 µM [inhibitor, single point] | – |
| O=C(NC(=S)Nc1ccc([N+](=O)[O-])cc1O)C1CCCCC1 | active: 11.2 µM | – |
| O=C(Nc1ccc(Cc2ccncc2)cc1)c1ccc(Br)o1 | – | inactive: -10.2% |
| NS(=O)(=O)c1ccc(NC(=O)CN2CCN(S(=O)(=O)c3cccs3)CC2)cc1 | inconclusive: 35.5 µM [inhibitor, single point] | – |

| SMILES | Potency | activity, negative = inhibition |
| --- | --- | --- |
| COCCNC(=O)c1onc(CSc2nc3ccccc3[nH]2)c1C(=O)NCCOC | inconclusive: 6.31 µM [inhibitor, single point] | – |
| CC(=O)c1c(C)oc2c1C(=O)c1ccccc1C2=O | active: 7.94 µM | – |
| CC1=CC2=NC(=O)/C(=C\c3cccn3CCOc3cc(C)ccc3C)C(=N)N2O1 | inconclusive: 15.8 µM [inhibitor, partial curve, poor fit] | – |
| CCC(=O)Nc1ccc(N2CCN(C(=O)c3ccccc3C)CC2)cc1 | – | inactive: -9.55% |
| CCOc1ccccc1CN1CCc2nc(N3CCN(c4ccccc4F)CC3)ncc2C1 | inconclusive: 6.31 µM [inhibitor, partial curve, poor fit] | – |
| CCCc1cc(=O)[nH]c(SCC(=O)c2c(N)n(CC(C)C)c(=O)n(C)c2=O)n1 | inconclusive: 5.62 µM [inhibitor, full curve] | – |
| CCCC[C@H]1COCCS(=O)(=O)N1Cc1ccc(Br)cc1 | active: 10 µM | – |
| O=c1[nH]c2ccccc2c2nc3ccccn3c12 | inconclusive: 3.98 µM [inhibitor, partial curve, poor fit] | – |
| COc1ccc(Br)cc1CNCC1CCCO1 (centres undefined) | inconclusive: 2.82 µM [inhibitor, full curve] | – |
| Cc1c(C(=O)N(Cc2cccc(Br)c2)C2CCS(=O)(=O)C2)oc2ccccc12 (centres undefined) | inconclusive: 2.82 µM [inhibitor, single point] | – |
| Cc1cc(Nc2ccccc2C)nc(-n2nc(C)cc2C)n1 | inconclusive: 22.4 µM [inhibitor, single point] | – |
| O=c1[nH]nc(CNc2cccc(C(F)(F)F)c2)c2ccccc12 | – | inactive: -19.6% |
| Cc1n[nH]c(C)c1S(=O)(=O)N1CCCC(C(=O)Nc2ccc(Br)cc2)C1 (centres undefined) | inconclusive: 25.1 µM [inhibitor, single point] and inconclusive: 22.4 µM [inhibitor, single point] | – |
| O=C(Nc1ccncc1)c1ccc(NS(=O)(=O)c2cccc(F)c2)cc1 | inconclusive: 15.8 µM [inhibitor, single point] | – |
| CN1C[C@@H]2[C@@H]3C(=O)N(Cc4ccccc4)C(=O)[C@@H]3[C@](Cc3ccccc3)(C1=O)N2C(=O)c1ccc(Cl)c(Cl)c1 | inconclusive: 35.5 µM [inhibitor, single point] | – |
| O=C1c2ccccc2-c2onc3ccc(NCCCn4ccnc4)c1c23 | inconclusive: 35.5 µM [inhibitor, single point] | – |
| CCN(CC)CCCNC(=O)c1ccc2nc(N3CCCCC3)sc2c1 | – | inactive: 22.8% |
| Cn1c(CCN2CCCCC2)nc2cc(NS(=O)(=O)c3ccccc3)ccc21 | inconclusive: 12.6 µM [inhibitor, partial curve, poor fit] | – |
| Cc1cccc(COc2coc(CN3CCN(C(=O)c4ccco4)CC3)cc2=O)c1 | inconclusive: 35.5 µM [inhibitor, single point] | – |
| O=C(Nc1cccc2ncccc12)c1ccc(F)cc1 | inconclusive: 2.82 µM [inhibitor, single point] | – |
| O=C(Nc1ccccc1C(=O)NC1CC1)c1ccc([N+](=O)[O-])o1 | inconclusive: 17.8 µM [inhibitor, partial curve, poor fit] | – |
| CCOCCn1c(CN(C)Cc2ccccc2)nc2c1c(=O)n(C)c(=O)n2C | – | inactive: 11.4% |
| Oc1ccc(Br)cc1C=Nc1ccc2c3c(cccc13)CC2 | inconclusive: 35.5 µM [inhibitor, single point] | – |

| SMILES | Potency | activity, negative = inhibition |
| --- | --- | --- |
| Cc1coc2c(O)cc3c(c12)OC1(N2CCCCC2)C(=O)NCCCC31 (centres undefined) | inconclusive: 14.1 µM [inhibitor, partial curve, poor fit] | – |
| CC[C@H]1C(Nc2ccccc2)C[C@@H]2CCN3C(=O)CC[C@H]1[C@H]23 (some centres undefined) | – | inactive: -1.98% |
| Brc1ccccc1Cn1cnc2ccccc21 | inconclusive: 35.5 µM [inhibitor, single point] | – |
| CC[C@@H](C)[C@H](CN[C@H](CNC)C(C)C)NC[C@@H](C)c1ccc(CC(C)C)cc1 | inconclusive: 20 µM [inhibitor, partial curve, poor fit] | – |
| O=C1C(=O)N(C2CCN(C(=O)c3ccc(Cl)cc3)CC2)CCN1Cc1ccc(F)cc1 | – | inactive: -14.7% |
| CC(=O)N1CCCc2cc(S(=O)(=O)N3CCC(C(=O)Nc4c(C)cccc4C)CC3)ccc21 | inconclusive: 17.8 µM [inhibitor, partial curve, poor fit] | – |
| Oc1c(Br)cc(Br)c(/C=N/n2c(-c3ccccc3)n[nH]c2=S)c1Br | inconclusive: 25.1 µM [inhibitor, single point] | – |
| Cc1cc(F)ccc1S(=O)(=O)Nc1nc2ccccc2nc1Cl | – | inactive: -4.14% |
| Cc1ccc(C(=O)Oc2ccccc2N2C(=O)C3CCC(C)CC3C2=O)cc1 (centres undefined) | – | inactive: 0% |
| COc1cccc(-c2cc(=O)c3cc(NC(C)=O)ccc3[nH]2)c1 | inconclusive: 17.8 µM [inhibitor, single point] | – |
| CC1CCN(C(=O)CSc2nc3c(cnn3-c3ccccc3)c(=O)[nH]2)CC1 | – | inactive: 3.97% |
| COc1ccc(C(=O)n2nc(-c3cccnc3)nc2NCc2ccccc2)cc1OC | – | inactive: 3.64% |
| COc1ccccc1CNc1ncnc2onc(-c3ccc(F)cc3)c12 | – | inactive: 7.34% |
| Cc1ccc(NC(=O)COc2ccccc2C#N)cc1S(=O)(=O)N1CCCCCC1 | inconclusive: 35.5 µM [inhibitor, single point] | – |
| O=[N+]([O-])c1ccc(C=NNc2ccccc2)cc1 | inconclusive: 20 µM [inhibitor, single point] | – |
| COc1cc(OC)cc(C(=O)NC(=S)Nc2ccc3c4c(cccc24)CC3)c1 | – | inactive: -15.3% |
| NC(=O)c1c(NC(=O)CN2CCCC2)sc2c1CCCC2 | inconclusive: 6.31 µM [inhibitor, partial curve, poor fit] | – |
| COc1cc(C(=O)NNC(=O)Cc2cccs2)cc(OC)c1OC | – | inactive: 3.08% |
| COc1ccc(CNCCCn2cnc(C(=O)Nc3ccc(C)c(C)c3)n2)cc1 | – | inactive: 17.9% |
| COC(=O)CC1C(=O)NCCN1C(=S)Nc1cc(C)cc(C)c1 (centres undefined) | inconclusive: 11.2 µM [inhibitor, single point] | – |
| O=S(=O)(NCCSc1ccc(Cl)cc1)c1ccc(F)cc1 | inconclusive: 35.5 µM [inhibitor, single point] | – |
| O=C(CO/N=C/c1ccccc1O)NNC(=O)c1ccccc1Cl | inconclusive: 11.2 µM [inhibitor, partial curve, poor fit] | – |
| COc1ccc(-c2nc(CN3CCC(C(=O)NCc4ccc(C)cc4)CC3)c(C)o2)cc1OC | inconclusive: 11.2 µM [inhibitor, partial curve, poor fit] | – |
